According to the supplement of paper PMC10126150:
Sequences with one replicate were seen in a single cluster, so their values are uncertain.

Test system: ATP
Test: switch fluorescence ratio, 500 uM ATP over buffer (Cy3 cluster intensity, sum of 5 cycles each) (fold (ratio)); higher = stronger signal-on switching upon ATP binding; sequences stand for … in TCGTCGGCAGCGTCAGATGTGTATAAGAGACAGTTTTTTTTTTTTTTTTTTTTTTTTT…TC
Settings: aptamer strand: ATP DNA aptamer (quencher-CACCTGGGGGAGTATTGCGGAGGAAGG + anchor), 100 nM annealed; ATP concentration: 500 uM; one replicate
Method in brief: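 Imaging in selection buffer was followed by imaging after 15 min with 500 uM ATP at 22 °C, for Cy3-labelled switching-strand clusters annealed to 100 nM quencher-labelled ATP aptamer on a modified Illumina MiSeq flow-cell. Five of these buffer/ATP cycles ran, separated by NaOH stripping and re-annealing. The fluorescence ratio per cluster is summed target-cycle over summed buffer-cycle Cy3 intensity, averaged per switch-domain sequence; clusters outside 100-1000 RFU were removed.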
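Note: ATP exposure 15 min at 22 °C before imaging.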

Question: AAAACGCGAT was tested. Which switch fluorescence ratio did it give?
Answer: The switch fluorescence ratio was 4.66.

Question: How did the switch fluorescence ratio turn out when AGCACCCTA was run?
Answer: Its switch fluorescence ratio is 1.07.

Question: Which switch fluorescence ratio does the source give for TCGTACCGT here?
Answer: Its switch fluorescence ratio is 1.02.

Question: With AGACTGACGG as the sequence, how does the switch fluorescence ratio read?
Answer: The switch fluorescence ratio was 0.975.

Question: How did the switch fluorescence ratio turn out when GCTATATGTT was run?
Answer: The switch fluorescence ratio was 1.01.

Question: With TGGGGCAATG as the sequence, how does the switch fluorescence ratio read?
Answer: The switch fluorescence ratio was 1.08.

Question: Which switch fluorescence ratio does the source give for GCTTGGATGG here?
Answer: Its switch fluorescence ratio is 1.06.

Question: For TTGCTATTTG, which switch fluorescence ratio is on record?
Answer: Its switch fluorescence ratio is 0.988.

Question: Which switch fluorescence ratio does the source give for CTGCGGTTGT here?
Answer: The switch fluorescence ratio was 1.

Question: With AAAGATGCAT as the sequence, how does the switch fluorescence ratio read?
Answer: The switch fluorescence ratio was 0.992.

Question: Which switch fluorescence ratio does the source give for TTTAAATAAG here?
Answer: Its switch fluorescence ratio is 0.993.

Question: Which switch fluorescence ratio does the source give for AGTAATTCAG here?
Answer: Its switch fluorescence ratio is 1.

Question: How did the switch fluorescence ratio turn out when CACGGCCTGT was run?
Answer: Its switch fluorescence ratio is 0.997.

Question: For CATTGACTAC, which switch fluorescence ratio is on record?
Answer: The switch fluorescence ratio was 1.09.

Question: For TCAGAGTTC, which switch fluorescence ratio is on record?
Answer: The switch fluorescence ratio was 0.989.

Question: TTGGTGCATC was tested. Which switch fluorescence ratio did it give?
Answer: Its switch fluorescence ratio is 0.96.

Question: Which switch fluorescence ratio does the source give for TCTAATACG here?
Answer: The switch fluorescence ratio was 1.05.

Question: With AACTGTCGCC as the sequence, how does the switch fluorescence ratio read?
Answer: Its switch fluorescence ratio is 1.02.

Question: Which switch fluorescence ratio does the source give for TTACTTTTG here?
Answer: The switch fluorescence ratio was 1.

Question: How did the switch fluorescence ratio turn out when CCGTAAGGCC was run?
Answer: The switch fluorescence ratio was 1.18.

Question: AGTATTACAT was tested. Which switch fluorescence ratio did it give?
Answer: Its switch fluorescence ratio is 0.991.

Question: AGTAGGGG was tested. Which switch fluorescence ratio did it give?
Answer: Its switch fluorescence ratio is 0.99.

Question: How did the switch fluorescence ratio turn out when CAGGCGAGCA was run?
Answer: The switch fluorescence ratio was 0.955.

Question: TCTTTCACAG was tested. Which switch fluorescence ratio did it give?
Answer: Its switch fluorescence ratio is 0.996.

Question: Which switch fluorescence ratio does the source give for AAGAATGGTT here?
Answer: The switch fluorescence ratio was 0.969.

Question: How did the switch fluorescence ratio turn out when CAGGTTTCAT was run?
Answer: Its switch fluorescence ratio is 1.05.

Question: With CGTGAATGAT as the sequence, how does the switch fluorescence ratio read?
Answer: The switch fluorescence ratio was 1.03.

Question: For GTGTGTTCCC, which switch fluorescence ratio is on record?
Answer: Its switch fluorescence ratio is 0.936.

Question: Which switch fluorescence ratio does the source give for CGCCGGCGT here?
Answer: The switch fluorescence ratio was 1.03.

Question: How did the switch fluorescence ratio turn out when TAGTTGTGTT was run?
Answer: The switch fluorescence ratio was 1.

Question: With ATTAAGCGTC as the sequence, how does the switch fluorescence ratio read?
Answer: The switch fluorescence ratio was 0.938.

Question: Which switch fluorescence ratio does the source give for ATATACGCCC here?
Answer: The switch fluorescence ratio was 1.34.

Question: CGCGGCTTGA was tested. Which switch fluorescence ratio did it give?
Answer: Its switch fluorescence ratio is 1.05.

Question: How did the switch fluorescence ratio turn out when AAACATCGA was run?
Answer: The switch fluorescence ratio was 1.06.

Question: How did the switch fluorescence ratio turn out when TTCAACATCA was run?
Answer: The switch fluorescence ratio was 0.996.

Question: Which switch fluorescence ratio does the source give for TTAAGGCAAT here?
Answer: Its switch fluorescence ratio is 2.66.

Question: For GCATATGCCA, which switch fluorescence ratio is on record?
Answer: Its switch fluorescence ratio is 1.

Question: With ATGCAAAAG as the sequence, how does the switch fluorescence ratio read?
Answer: Its switch fluorescence ratio is 1.06.

Question: ATCTGACATA was tested. Which switch fluorescence ratio did it give?
Answer: The switch fluorescence ratio was 1.04.

Question: With CTAAGAGGGG as the sequence, how does the switch fluorescence ratio read?
Answer: Its switch fluorescence ratio is 0.976.

Question: How did the switch fluorescence ratio turn out when CTTAGCCTCG was run?
Answer: The switch fluorescence ratio was 1.01.

Question: Which switch fluorescence ratio does the source give for GACTTGAGGC here?
Answer: The switch fluorescence ratio was 1.03.

Question: For CGTAATTGGT, which switch fluorescence ratio is on record?
Answer: Its switch fluorescence ratio is 1.05.

Question: For TTGACCATT, which switch fluorescence ratio is on record?
Answer: The switch fluorescence ratio was 0.983.

Question: Which switch fluorescence ratio does the source give for CCCTCCTGCC here?
Answer: The switch fluorescence ratio was 3.04.

Question: With ATAAACTCTA as the sequence, how does the switch fluorescence ratio read?
Answer: The switch fluorescence ratio was 1.02.

Question: With CTCTCAGTTG as the sequence, how does the switch fluorescence ratio read?
Answer: Its switch fluorescence ratio is 1.08.

Question: With TCTCGTCA as the sequence, how does the switch fluorescence ratio read?
Answer: The switch fluorescence ratio was 1.11.

Question: ATAACGGGTT was tested. Which switch fluorescence ratio did it give?
Answer: The switch fluorescence ratio was 1.2.

Question: Which switch fluorescence ratio does the source give for CGCGCTGCAG here?
Answer: The switch fluorescence ratio was 0.966.

Question: For TTGCTTCCAG, which switch fluorescence ratio is on record?
Answer: The switch fluorescence ratio was 1.05.

Question: For TAGGCCTCTA, which switch fluorescence ratio is on record?
Answer: The switch fluorescence ratio was 0.958.

Question: Which switch fluorescence ratio does the source give for ACTATGTATT here?
Answer: The switch fluorescence ratio was 0.991.

Question: For TCTTCTTGGG, which switch fluorescence ratio is on record?
Answer: The switch fluorescence ratio was 0.982.

Question: With CGGTCCGAT as the sequence, how does the switch fluorescence ratio read?
Answer: Its switch fluorescence ratio is 0.964.

Question: AGGTCGAAAT was tested. Which switch fluorescence ratio did it give?
Answer: The switch fluorescence ratio was 0.995.

Question: GCGTCTCAAT was tested. Which switch fluorescence ratio did it give?
Answer: Its switch fluorescence ratio is 1.04.

Question: For GCTTCACTCA, which switch fluorescence ratio is on record?
Answer: Its switch fluorescence ratio is 1.01.

Question: How did the switch fluorescence ratio turn out when GACTATGTT was run?
Answer: Its switch fluorescence ratio is 0.968.

Question: How did the switch fluorescence ratio turn out when TTGCCTCTAT was run?
Answer: Its switch fluorescence ratio is 0.948.

Question: How did the switch fluorescence ratio turn out when TCGAGTTATG was run?
Answer: The switch fluorescence ratio was 1.01.

Question: For CGGCGGGCG, which switch fluorescence ratio is on record?
Answer: Its switch fluorescence ratio is 0.926.

Question: Which switch fluorescence ratio does the source give for ATAAATTCAC here?
Answer: Its switch fluorescence ratio is 1.02.

Question: How did the switch fluorescence ratio turn out when CGATGTCTCG was run?
Answer: The switch fluorescence ratio was 0.98.

Question: How did the switch fluorescence ratio turn out when TAGAACTGGT was run?
Answer: The switch fluorescence ratio was 0.917.

Question: Which switch fluorescence ratio does the source give for CCCAGCGTTT here?
Answer: The switch fluorescence ratio was 1.09.

Question: Which switch fluorescence ratio does the source give for GATGGTTTAC here?
Answer: The switch fluorescence ratio was 1.02.

Question: How did the switch fluorescence ratio turn out when ATGCGTCCCA was run?
Answer: The switch fluorescence ratio was 0.985.

Question: With GACCACATAT as the sequence, how does the switch fluorescence ratio read?
Answer: Its switch fluorescence ratio is 1.1.

Question: Which switch fluorescence ratio does the source give for TATGACAGGC here?
Answer: Its switch fluorescence ratio is 0.921.

Question: Which switch fluorescence ratio does the source give for TGTCACTCTT here?
Answer: The switch fluorescence ratio was 0.992.

Question: CGGCGCGGGA was tested. Which switch fluorescence ratio did it give?
Answer: The switch fluorescence ratio was 0.991.

Question: For CGAGTCGCTC, which switch fluorescence ratio is on record?
Answer: The switch fluorescence ratio was 0.994.

Question: CGCCTTAGAG was tested. Which switch fluorescence ratio did it give?
Answer: Its switch fluorescence ratio is 0.983.

Question: Which switch fluorescence ratio does the source give for CTCGGAGTGG here?
Answer: The switch fluorescence ratio was 1.04.

Question: How did the switch fluorescence ratio turn out when GGCCACAGCT was run?
Answer: The switch fluorescence ratio was 0.997.

Question: With GGACGTAGGG as the sequence, how does the switch fluorescence ratio read?
Answer: Its switch fluorescence ratio is 0.998.

Question: Which switch fluorescence ratio does the source give for ATTCAACCAA here?
Answer: Its switch fluorescence ratio is 0.976.

Question: How did the switch fluorescence ratio turn out when CCATTGGCAG was run?
Answer: Its switch fluorescence ratio is 1.08.

Question: TCTTCATGA was tested. Which switch fluorescence ratio did it give?
Answer: Its switch fluorescence ratio is 1.04.

Question: How did the switch fluorescence ratio turn out when TTCTCGCCTT was run?
Answer: The switch fluorescence ratio was 0.998.

Question: Which switch fluorescence ratio does the source give for CATCCTTGTT here?
Answer: The switch fluorescence ratio was 1.

Question: With ATCGTTCAGA as the sequence, how does the switch fluorescence ratio read?
Answer: The switch fluorescence ratio was 1.02.

Question: With TATTTGACTA as the sequence, how does the switch fluorescence ratio read?
Answer: The switch fluorescence ratio was 1.01.

Question: GGTTCTGTCT was tested. Which switch fluorescence ratio did it give?
Answer: The switch fluorescence ratio was 0.994.

Question: For CTATTTATGT, which switch fluorescence ratio is on record?
Answer: Its switch fluorescence ratio is 0.998.

Question: Which switch fluorescence ratio does the source give for GAGTACGTAA here?
Answer: Its switch fluorescence ratio is 1.19.

Question: ACACTGGTGA was tested. Which switch fluorescence ratio did it give?
Answer: Its switch fluorescence ratio is 1.19.

Question: With CGTAATTAC as the sequence, how does the switch fluorescence ratio read?
Answer: The switch fluorescence ratio was 2.6.

Question: With AACGAAACAT as the sequence, how does the switch fluorescence ratio read?
Answer: The switch fluorescence ratio was 1.19.

Question: How did the switch fluorescence ratio turn out when CAAGGAATTA was run?
Answer: The switch fluorescence ratio was 0.987.

Question: For GAGGGACATA, which switch fluorescence ratio is on record?
Answer: The switch fluorescence ratio was 1.01.

Question: TCTAGTTTAG was tested. Which switch fluorescence ratio did it give?
Answer: Its switch fluorescence ratio is 1.01.

Question: For CACGGGAGGT, which switch fluorescence ratio is on record?
Answer: Its switch fluorescence ratio is 1.06.

Question: With CGACACTCTC as the sequence, how does the switch fluorescence ratio read?
Answer: The switch fluorescence ratio was 1.14.

Question: For ATTTTAGAC, which switch fluorescence ratio is on record?
Answer: The switch fluorescence ratio was 1.04.

Question: Which switch fluorescence ratio does the source give for AGTGGTGCGG here?
Answer: Its switch fluorescence ratio is 0.917.

Question: How did the switch fluorescence ratio turn out when CCTGGGCATT was run?
Answer: The switch fluorescence ratio was 2.18.

Question: How did the switch fluorescence ratio turn out when TCCGCATAAA was run?
Answer: Its switch fluorescence ratio is 4.53.

Question: For ATGATTTGAC, which switch fluorescence ratio is on record?
Answer: Its switch fluorescence ratio is 1.02.

Question: How did the switch fluorescence ratio turn out when CGCTGACTCT was run?
Answer: The switch fluorescence ratio was 1.2.
